The results in this text go back to the supplement of paper PMC4604168 (melanoma cell lines).

Molecules are shown by their SMILES. Some of the results follow. Many values rest on one well or one pass, so single values are uncertain.
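Further: cells treated in 1,536-well plates, then fixed and DAPI-stained, with nuclei counted from automated high-throughput microscope images.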

For one assay, the system named is 501Mel. Nature of the assay: cell count relative to DMSO control; melanoma cells; higher = more viable cells. To be noted: library dose: standard library concentration; 72 h.
For `Cc1nc(Nc2ncc(C(=O)Nc3c(C)cccc3Cl)s2)cc(N2CCN(CCO)CC2)n1` [dasatanib] + Cc1cc([N+](=O)[O-])ccc1NS(=O)(=O)c1cc(Cl)ccc1Cl [FH535] (first compound 0.02 µM, partner dose 5 µM), the cell count was determined as 78%.
For `C=CCn1c(=O)c2cnc(Nc3ccc(N4CCN(C)CC4)cc3)nc2n1-c1cccc(C(C)(C)O)n1` + COc1ccc(COc2ccc(Cc3cnc(N)nc3N)cc2OC)cc1 [GW2580] (first compound 0.1 µM, partner dose 5 µM), the cell count is 75.1%.
Regarding `NCC(=O)Nc1ccc(-n2nc(C(F)(F)F)cc2-c2ccc3c(ccc4ccccc43)c2)cc1` + CCN(CC)CCCCNc1ncc2cc(-c3cc(OC)cc(OC)c3)c(NC(=O)NC(C)(C)C)nc2n1 [PD173074] (first compound 5 µM, partner dose 0.5 µM), the cell count is 5.53%.
On the same count and under the same terms, under `C=CCn1c(=O)c2cnc(Nc3ccc(N4CCN(C)CC4)cc3)nc2n1-c1cccc(C(C)(C)O)n1` + CC(C)CCN1c2nc(Nc3cc(F)c(O)c(F)c3)ncc2N(C)C(=O)C1C [BID1870] (first compound 0.1 µM, partner dose 1 µM) stands 47.1%; under `CO[C@@H]1[C@H](N(C)C(=O)c2ccccc2)C[C@H]2O[C@]1(C)n1c3ccccc3c3c4c(c5c6ccccc6n2c5c31)C(=O)NC4` [Midostaurin] + O=C(O)C(=O)Nc1sc2c(c1C(=O)O)CCNC2 [TCS401] (first compound 0.4 µM, partner dose 8.33333 µM), 92%.
In turn, `CO[C@@H]1[C@H](N(C)C(=O)c2ccccc2)C[C@H]2O[C@]1(C)n1c3ccccc3c3c4c(c5c6ccccc6n2c5c31)C(=O)NC4` [Midostaurin] + COc1ccc2c(c1)CCC1C2CCC2(C)C(NCCCCCCN3C(=O)C=CC3=O)CCC12 [U73122] (first compound 0.4 µM, partner dose 2 µM) registered a cell count of 87.6%.
In turn, `NC(=O)Nc1cc(-c2cccc(F)c2)sc1C(=O)N[C@H]1CCCNC1` + COc1cc2ncnc(Nc3ccc(Oc4ccccc4)cc3)c2cc1OC [SrcI1] (first compound 0.1 µM, partner dose 10 µM) had a cell count of 82.6%.

The next assay has as its system A101D. The assay is described as above. The note with it: library dose: standard library concentration; 72 h.
For `OCCn1cc(-c2cnc3nnn(Cc4ccc5ncccc5c4)c3n2)cn1` + CCc1ccc(CCOc2ccc(CC3SC(=O)NC3=O)cc2)nc1 [pioglitazone] (first compound 5 µM, partner dose 10 µM), the cell count was found to be 84.1%.
Same read-out and setting: as for `NCC(=O)Nc1ccc(-n2nc(C(F)(F)F)cc2-c2ccc3c(ccc4ccccc43)c2)cc1` + Cc1cc([N+](=O)[O-])ccc1NS(=O)(=O)c1cc(Cl)ccc1Cl [FH535] (first compound 5 µM, partner dose 5 µM), the figure is 49.1%.
In turn, `Cc1nc(Nc2ncc(C(=O)Nc3c(C)cccc3Cl)s2)cc(N2CCN(CCO)CC2)n1` [dasatanib] + COc1cc(N2CCC(N3CCN(C)CC3)CC2)ccc1Nc1ncc(Cl)c(Nc2ccccc2S(=O)(=O)C(C)C)n1 [NVP-TAE684] (first compound 0.02 µM, partner dose 0.4 µM) registered a cell count of 42.8%.
`CO[C@@H]1[C@H](N(C)C(=O)c2ccccc2)C[C@H]2O[C@]1(C)n1c3ccccc3c3c4c(c5c6ccccc6n2c5c31)C(=O)NC4` [Midostaurin] + Oc1nc(-c2ccc(C(F)(F)F)cc2)nc2c1CSCC2 [XAV939] (first compound 0.4 µM, partner dose 10 µM): the cell count is 84.6%.
Compound `OCCn1cc(-c2cnc3nnn(Cc4ccc5ncccc5c4)c3n2)cn1` + N#Cc1c(O)c2c(-c3ccc(-c4ccccc4O)cc3)csc2[nH]c1=O [A769662] (first compound 5 µM, partner dose 10 µM) came in with a cell count of 105%.
Regarding `C[C@]1(c2nc3c(C(N)=O)cccc3[nH]2)CCCN1` [Veliparib] + COC(=O)c1sccc1S(=O)(=O)Nc1ccc(Nc2ccccc2)cc1OC [GSK0660] (first compound 7 µM, partner dose 5 µM), the cell count was determined as 96%.
The same measure, in the same setting: as for `Cc1nc(Nc2ncc(C(=O)Nc3c(C)cccc3Cl)s2)cc(N2CCN(CCO)CC2)n1` [dasatanib] + COc1ccc(COc2ccc(Cc3cnc(N)nc3N)cc2OC)cc1 [GW2580] (first compound 0.02 µM, partner dose 5 µM), the figure is 59.7%; as for `CN(C)S(=O)(=O)c1ccc2c(c1)/C(=C/c1cc3c([nH]1)CCCC3)C(=O)N2` + COc1ccc2c(c1)CCC1C2CCC2(C)C(NCCCCCCN3C(=O)C=CC3=O)CCC12 [U73122] (first compound 2 µM, partner dose 2 µM), 53.1%; as for `NCC(=O)Nc1ccc(-n2nc(C(F)(F)F)cc2-c2ccc3c(ccc4ccccc43)c2)cc1` + O=C1NC(=O)/C(=C/c2ccc(-c3ccc(F)cc3O)o2)S1 [AS252424] (first compound 5 µM, partner dose 5 µM), 92.3%.
On to `CN(C)S(=O)(=O)c1ccc2c(c1)/C(=C/c1cc3c([nH]1)CCCC3)C(=O)N2` + Cn1cc(/C=C2\C(=O)Nc3cccnc32)c2ccccc21 [GW441756] (first compound 2 µM, partner dose 2 µM), for which the cell count is 70.8%.
In turn, `C=CCn1c(=O)c2cnc(Nc3ccc(N4CCN(C)CC4)cc3)nc2n1-c1cccc(C(C)(C)O)n1` + O=C1NC(=O)/C(=C/c2ccc(-c3ccc(F)cc3O)o2)S1 [AS252424] (first compound 0.1 µM, partner dose 5 µM) yielded a cell count of 82%.
Same read-out and setting: under `C=CCn1c(=O)c2cnc(Nc3ccc(N4CCN(C)CC4)cc3)nc2n1-c1cccc(C(C)(C)O)n1` + COc1ccc(-c2ccc3c(N4CCOCC4)nc(N4C[C@@H](C)O[C@@H](C)C4)nc3n2)cc1CO [KU0063794] (first compound 0.1 µM, partner dose 0.1 µM) stands 54.7%; under `CO[C@@H]1[C@H](N(C)C(=O)c2ccccc2)C[C@H]2O[C@]1(C)n1c3ccccc3c3c4c(c5c6ccccc6n2c5c31)C(=O)NC4` [Midostaurin] + O=S(=O)(c1ccccc1)N(CC(F)(F)F)c1ccc(C(O)(C(F)(F)F)C(F)(F)F)cc1 [T0901317] (first compound 0.4 µM, partner dose 7 µM), 50.8%.
The compound `C[C@]1(c2nc3c(C(N)=O)cccc3[nH]2)CCCN1` [Veliparib] + Cc1cc([N+](=O)[O-])ccc1NS(=O)(=O)c1cc(Cl)ccc1Cl [FH535] (first compound 7 µM, partner dose 5 µM) registered a cell count of 68.3%.
Compound `Cc1nc(Nc2ncc(C(=O)Nc3c(C)cccc3Cl)s2)cc(N2CCN(CCO)CC2)n1` [dasatanib] + O=c1cc(-c2cccc3c2Sc2ccccc2S3)oc(N2CCOCC2)c1 [KU55933] (first compound 0.02 µM, partner dose 5 µM) gave a cell count of 55.7%.
In turn, `Cc1nc(Nc2ncc(C(=O)Nc3c(C)cccc3Cl)s2)cc(N2CCN(CCO)CC2)n1` [dasatanib] + COc1ccc(-c2ccc3c(N4CCOCC4)nc(N4C[C@@H](C)O[C@@H](C)C4)nc3n2)cc1CO [KU0063794] (first compound 0.02 µM, partner dose 0.1 µM) had a cell count of 49.8%.
The compound `CN(C)S(=O)(=O)c1ccc2c(c1)/C(=C/c1cc3c([nH]1)CCCC3)C(=O)N2` + COC(=O)c1sccc1S(=O)(=O)Nc1ccc(Nc2ccccc2)cc1OC [GSK0660] (first compound 2 µM, partner dose 5 µM) came in with a cell count of 69.1%.
`CN(C)S(=O)(=O)c1ccc2c(c1)/C(=C/c1cc3c([nH]1)CCCC3)C(=O)N2` + COc1cc2ncnc(Nc3ccc(Oc4ccccc4)cc3)c2cc1OC [SrcI1] (first compound 2 µM, partner dose 10 µM) showed a cell count of 65.3%.
Compound `NCC(=O)Nc1ccc(-n2nc(C(F)(F)F)cc2-c2ccc3c(ccc4ccccc43)c2)cc1` + CC(C)CCN1c2nc(Nc3cc(F)c(O)c(F)c3)ncc2N(C)C(=O)C1C [BID1870] (first compound 5 µM, partner dose 1 µM) returned a cell count of 81.9%.
Compound `NC(=O)Nc1cc(-c2cccc(F)c2)sc1C(=O)N[C@H]1CCCNC1` + O=C(Nc1ccccc1)c1cc([N+](=O)[O-])ccc1Cl [GW9662] (first compound 0.1 µM, partner dose 10 µM) had a cell count of 56.5%.
Take `OCCn1cc(-c2cnc3nnn(Cc4ccc5ncccc5c4)c3n2)cn1` + Oc1nc(-c2ccc(C(F)(F)F)cc2)nc2c1CSCC2 [XAV939] (first compound 5 µM, partner dose 10 µM): the cell count was 101%.
On the same count and under the same terms, as for `Cc1nc(Nc2ncc(C(=O)Nc3c(C)cccc3Cl)s2)cc(N2CCN(CCO)CC2)n1` [dasatanib] + O=C(O)C(=O)Nc1sc2c(c1C(=O)O)CCNC2 [TCS401] (first compound 0.02 µM, partner dose 8.33333 µM), the figure is 78%; as for `C[C@]1(c2nc3c(C(N)=O)cccc3[nH]2)CCCN1` [Veliparib] + CC(C)CCN1c2nc(Nc3cc(F)c(O)c(F)c3)ncc2N(C)C(=O)C1C [BID1870] (first compound 7 µM, partner dose 1 µM), 67.4%.
Regarding `CO[C@@H]1[C@H](N(C)C(=O)c2ccccc2)C[C@H]2O[C@]1(C)n1c3ccccc3c3c4c(c5c6ccccc6n2c5c31)C(=O)NC4` [Midostaurin] + COc1ccc(COc2ccc(Cc3cnc(N)nc3N)cc2OC)cc1 [GW2580] (first compound 0.4 µM, partner dose 5 µM), the cell count is 71.1%.
As for `NCC(=O)Nc1ccc(-n2nc(C(F)(F)F)cc2-c2ccc3c(ccc4ccccc43)c2)cc1` + COc1ccc2c(c1)CCC1C2CCC2(C)C(NCCCCCCN3C(=O)C=CC3=O)CCC12 [U73122] (first compound 5 µM, partner dose 2 µM), the cell count was found to be 97.4%.
